Values marked as one replicate rest on one cluster of the flow cell; about a third of the high ones do not repeat.
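Also: ATP exposure 15 min at 22 °C before imaging.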

For this series, the system named is ATP. The experiment in a line: switch fluorescence ratio, 500 uM ATP over buffer (Cy3 cluster intensity, sum of 5 cycles each) (fold (ratio)); higher = stronger signal-on switching upon ATP binding; sequences stand for … in TCGTCGGCAGCGTCAGATGTGTATAAGAGACAGTTTTTTTTTTTTTTTTTTTTTTTTT…TC. The settings on record: aptamer strand: ATP DNA aptamer (quencher-CACCTGGGGGAGTATTGCGGAGGAAGG + anchor), 100 nM annealed; ATP concentration: 500 uM; one replicate. A digest of the protocol: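 Switching-strand clusters labelled with Cy3 on a modified Illumina MiSeq flow-cell were annealed to 100 nM quencher-labelled ATP aptamer, imaged in selection buffer, and re-imaged after 15 min with 500 uM ATP at 22 °C. This was done over five cycles with NaOH stripping and re-annealing in between. The fluorescence ratio is summed target-cycle over summed buffer-cycle Cy3 intensity per cluster, averaged per switch-domain sequence, excluding clusters outside 100-1000 RFU.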
Consider TCTACCAGAT, for which the switch fluorescence ratio worked out at 1.02.
ATTCAGTACT: the switch fluorescence ratio was 0.941.
As to GGGCGCTGCT, the switch fluorescence ratio worked out at 1.01.
Consider TTTCGCTTAG, for which the switch fluorescence ratio turned out to be 1.04.
The result for GTACCTGGTA reads 1.01; that for CGCTGCATCC, 2.17.
On to AGTCTTTAGC, for which the switch fluorescence ratio turned out to be 1.
The result for CCTCGTAAAA reads 1.03; that for CCCCATACGG, 1.38.
The result for AGGTCCAGAT reads 1.02.
The result for TAGTACTCCC reads 2.08; that for AGGGGGC, 1.04.
With TCTCCTTGGC, the switch fluorescence ratio turned out to be 1.1.
The result for GAAAATGAGA reads 0.992; that for CGGTGAACGG, 0.973; that for TCCTCGATTG, 1.08.
Turning to ACTTAACTTA, the switch fluorescence ratio was 1.1.
The result for TTATATCCA reads 1.03.
The result for GTGTTTCACG reads 0.988.
Then TGCGACTTGT, with 0.944.
Turning to AGGAGCACGA, the switch fluorescence ratio came to 0.992.
As to AAATAGTATT, the switch fluorescence ratio was 1.01.
The result for AATCAATTG reads 0.996; that for TCACCAAACC, 1.15.
In the case of GTGCGGAATT, the switch fluorescence ratio stood at 1.2.
The result for TCGCATTCGA reads 1.51.
Take TGAGGACTAT: the switch fluorescence ratio was 1.02.
As to ATGTGCAGCA, the switch fluorescence ratio came out at 1.01.
In the case of TATGCGTTC, the switch fluorescence ratio turned out to be 0.991.
Then ACTGGGTCTG, with 0.942; and AGAGTAAGCG, with 0.988.
For CCTGCACGCT, the switch fluorescence ratio came out at 1.45.
The result for ATGTCAGTCA reads 1; that for TGCGGTGCGT, 1.01; that for TTCTATGTTG, 1.02.
For the sequence GAAGATGATG, the switch fluorescence ratio worked out at 0.94.
The result for TGATACGACT reads 1.05; that for TACCTGTTTT, 1.01.
The result for CGCGGAGCG reads 0.984; that for GGATCGGGTT, 0.997; that for TATAGCTCTG, 0.952.
Then TATCGTTGAC, with 0.966.
For the sequence TGAGAGCGAA, the switch fluorescence ratio was 0.998.
The result for GTGAACGCCT reads 1.01; that for CTAGCATTTA, 1.06; that for TGATCCGGCG, 0.964.
CTTCAATACA: the switch fluorescence ratio came out at 1.19.
Then CGTCTTCGTA, with 0.957.
On to GTTAAGATTA, for which the switch fluorescence ratio was 1.03.
The result for GAATGAGAAA reads 0.931.
The result for CAATGATGAT reads 0.967; that for AACGCCTATC, 1.06.
The result for CTATTATTTT reads 0.994; that for TAAGGGTATT, 0.973; that for GAGCACGAAG, 0.969.
Consider GTCTTTCGTC, for which the switch fluorescence ratio came to 0.988.
The result for CTATGGTTGT reads 0.972.
On to TTACACGAGT, for which the switch fluorescence ratio is 1.02.
Consider AGGGGTCTGC, for which the switch fluorescence ratio was found to be 0.95.
Then AACGTCCTGT, with 1.04; and AGTGGCAGGC, with 1; and AGGGCTGAGG, with 1.03.
As to GTTTGAATAA, the switch fluorescence ratio came to 0.983.
As for GGGCCATCGA, the switch fluorescence ratio was determined as 1.01.
Then GATGACGGTA, with 1.06; and AGGCAAAGAT, with 1.01.
Then ATAGCAGCCT, with 1.08.

(Values after the supplement of paper PMC10126150.)
